Data: the supplement of paper PMC8728848
The list shows a part of the results.

Key:
Experiment in all cases: glycan array binding signal (z-score within array); higher = stronger binding
Conditions in all cases: glycan notation: IUPAC condensed, linker removed
Neu5Ac(a2-3)Gal = molecular target: Neu5Ac(a2-3)Gal
How it was run: (§1)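 Columns mapping to the same glycan were averaged after glycan names were converted to IUPAC-condensed notation. The data come from 3228 arrays in the Consortium for Functional Glycomics database, limited to those with an available protein sequence. Binding is reported as a within-array Z-score averaged across arrays of one protein sequence and across linkers.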

[1] = molecular target: Neu5Ac(a2-3)Gal(b1-3)GalNAc
How it was run: as §1

[2] = molecular target: Neu5Ac(a2-3)Gal(b1-3)GalNAc(b1-3)Gal(a1-4)Gal(b1-4)Glc
How it was run: as §1

[3] = molecular target: Neu5Ac(a2-3)Gal(b1-3)GalNAc(b1-4)Gal(b1-4)Glc
How it was run: as §1

[4] = molecular target: Neu5Ac(a2-3)Gal(b1-3)GalNAc(b1-4)[Neu5Ac(a2-3)]Gal(b1-4)Glc
How it was run: as §1

[5] = molecular target: Neu5Ac(a2-3)Gal(b1-3)GalNAc(b1-4)[Neu5Ac(a2-8)Neu5Ac(a2-3)]Gal(b1-4)Glc
How it was run: as §1

[6] = molecular target: Neu5Ac(a2-3)Gal(b1-3)GalNAc6S
How it was run: as §1

[7] = molecular target: Neu5Ac(a2-3)Gal(b1-3)GlcNAc
How it was run: as §1

[8] = molecular target: Neu5Ac(a2-3)Gal(b1-3)GlcNAc(b1-2)Man
How it was run: as §1

[9] = molecular target: Neu5Ac(a2-3)Gal(b1-3)GlcNAc(b1-2)Man(a1-3)[GlcNAc(b1-4)][Neu5Ac(a2-3)Gal(b1-3)GlcNAc(b1-2)Man(a1-6)]Man(b1-4)GlcNAc(b1-4)GlcNAc
How it was run: as §1

[10] = molecular target: Neu5Ac(a2-3)Gal(b1-3)GlcNAc(b1-2)Man(a1-3)[Neu5Ac(a2-3)Gal(b1-3)GlcNAc(b1-2)Man(a1-6)]Man(b1-4)GlcNAc(b1-4)GlcNAc
How it was run: as §1

[11] = molecular target: Neu5Ac(a2-3)Gal(b1-3)GlcNAc(b1-2)[Neu5Ac(a2-3)Gal(b1-3)GlcNAc(b1-4)]Man(a1-6)[Neu5Ac(a2-3)Gal(b1-3)GlcNAc(b1-2)Man(a1-3)]Man(b1-4)GlcNAc(b1-4)GlcNAc
How it was run: as §1

[12] = molecular target: Neu5Ac(a2-3)Gal(b1-3)GlcNAc(b1-3)Gal(b1-3)GlcNAc
How it was run: as §1

[13] = molecular target: Neu5Ac(a2-3)Gal(b1-3)GlcNAc(b1-3)Gal(b1-4)GlcNAc
How it was run: as §1

[14] = molecular target: Neu5Ac(a2-3)Gal(b1-3)GlcNAc(b1-3)GalNAc
How it was run: as §1

[15] = molecular target: Neu5Ac(a2-3)Gal(b1-3)GlcNAc(b1-6)GalNAc
How it was run: as §1

[16] = molecular target: Neu5Ac(a2-3)Gal(b1-3)GlcNAc6S
How it was run: as §1

[17] = molecular target: Neu5Ac(a2-3)Gal(b1-3)[Fuc(a1-4)]GlcNAc
How it was run: as §1

[18] = molecular target: Neu5Ac(a2-3)Gal(b1-3)[Fuc(a1-4)]GlcNAc(b1-3)Gal(b1-3)[Fuc(a1-4)]GlcNAc
How it was run: as §1

[19] = molecular target: Neu5Ac(a2-3)Gal(b1-3)[Fuc(a1-4)]GlcNAc(b1-3)Gal(b1-4)[Fuc(a1-3)]GlcNAc
How it was run: as §1

[20] = molecular target: Neu5Ac(a2-3)Gal(b1-3)[GlcNAc(b1-6)]GalNAc
How it was run: as §1

[21] = molecular target: Neu5Ac(a2-3)Gal(b1-3)[Neu5Ac(a2-6)]GalNAc
How it was run: as §1

[22] = molecular target: Neu5Ac(a2-3)Gal(b1-3)[Neu5Ac(a2-6)]GlcNAc(b1-3)[Fuc(a1-3)[Gal(b1-4)]GlcNAc(b1-6)]Gal(b1-4)Glc
How it was run: as §1

[23] = molecular target: Neu5Ac(a2-3)Gal(b1-3)]Neu5Ac(a2-3)Gal(b1-4)]GlcNAc
How it was run: as §1

Neu5Ac(a2-3)Gal(b1-4)Glc = molecular target: Neu5Ac(a2-3)Gal(b1-4)Glc
How it was run: as §1

[24] = molecular target: Neu5Ac(a2-3)Gal(b1-4)GlcNAc
How it was run: as §1

[25] = molecular target: Neu5Ac(a2-3)Gal(b1-4)GlcNAc(b1-2)Man
How it was run: as §1

[26] = molecular target: Neu5Ac(a2-3)Gal(b1-4)GlcNAc(b1-2)Man(a1-3)[GlcNAc(b1-4)][Neu5Ac(a2-3)Gal(b1-4)GlcNAc(b1-2)Man(a1-6)]Man(b1-4)GlcNAc(b1-4)GlcNAc
How it was run: as §1

[27] = molecular target: Neu5Ac(a2-3)Gal(b1-4)GlcNAc(b1-2)Man(a1-3)[Neu5Ac(a2-3)Gal(b1-4)GlcNAc(b1-2)Man(a1-6)]Man(b1-4)GlcNAc(b1-4)GlcNAc
How it was run: as §1

[28] = molecular target: Neu5Ac(a2-3)Gal(b1-4)GlcNAc(b1-2)Man(a1-3)[Neu5Ac(a2-3)Gal(b1-4)GlcNAc(b1-2)Man(a1-6)]Man(b1-4)GlcNAc(b1-4)[Fuc(a1-6)]GlcNAc
How it was run: as §1

[29] = molecular target: Neu5Ac(a2-3)Gal(b1-4)GlcNAc(b1-2)Man(a1-3)[Neu5Ac(a2-6)Gal(b1-4)GlcNAc(b1-2)Man(a1-6)]Man(b1-4)GlcNAc(b1-4)GlcNAc
How it was run: as §1

[30] = molecular target: Neu5Ac(a2-3)Gal(b1-4)GlcNAc(b1-2)[Neu5Ac(a2-3)Gal(b1-4)GlcNAc(b1-4)]Man(a1-3)[GlcNAc(b1-4)][Neu5Ac(a2-3)Gal(b1-4)GlcNAc(b1-2)[Neu5Ac(a2-3)Gal(b1-4)GlcNAc(b1-6)]Man(a1-6)]Man(b1-4)GlcNAc(b1-4)GlcNAc
How it was run: as §1

[31] = molecular target: Neu5Ac(a2-3)Gal(b1-4)GlcNAc(b1-2)[Neu5Ac(a2-3)Gal(b1-4)GlcNAc(b1-4)]Man(a1-3)[GlcNAc(b1-4)][Neu5Ac(a2-3)Gal(b1-4)GlcNAc(b1-4)Man(a1-6)]Man(b1-4)GlcNAc(b1-4)GlcNAc
How it was run: as §1

[32] = molecular target: Neu5Ac(a2-3)Gal(b1-4)GlcNAc(b1-2)[Neu5Ac(a2-3)Gal(b1-4)GlcNAc(b1-6)]Man(a1-6)[Neu5Ac(a2-3)Gal(b1-4)GlcNAc(b1-2)Man(a1-3)][GlcNAc(b1-4)]Man(b1-4)GlcNAc(b1-4)GlcNAc
How it was run: as §1

[33] = molecular target: Neu5Ac(a2-3)Gal(b1-4)GlcNAc(b1-3)Gal
How it was run: as §1

[34] = molecular target: Neu5Ac(a2-3)Gal(b1-4)GlcNAc(b1-3)Gal(b1-3)GlcNAc
How it was run: as §1

[35] = molecular target: Neu5Ac(a2-3)Gal(b1-4)GlcNAc(b1-3)Gal(b1-4)GlcNAc
How it was run: as §1

B1: Gal 8 (Mus musculus), Q9JL15 (protein)
chain: MGGSHHHHHHGMASMLSLNNLQNIIYNPIIPYVGTITEQLKPGSLIVIRGHVPKDSERFQVDFQLGNSLKPRADVAFHFNPRFKRSSCIVCNTLTQEKWGWEEITYDMPFRKEKSFEIVFMVLKNKFQVAVNGRHVLLYAHRISPEQIDTVGIYGKVNIHSIGFRFSSASALPHTLGDLQSMETSALGLTQINRENIQKPGKLQLSLPFEARLNASMGPGRTVVIKGEVNTNARSFNVDLVAGKTRDIALHLNPRLNVKAFVRNSFLQDAWGEEERNITCFPFSSGMYFEMIIYCDVREFKVAINGVHSLEYKHRFKDLSSIDTLSVDGDIRLLDVRSW
glycan array binding signal (z-score) (Neu5Ac(a2-3)Gal): -0.538 | glycan array binding signal (z-score) [1]: -0.187 | glycan array binding signal (z-score) [2]: 0.251 | glycan array binding signal (z-score) [3]: -0.539 | glycan array binding signal (z-score) [4]: -0.01 | glycan array binding signal (z-score) [5]: -0.352 | glycan array binding signal (z-score) [6]: -0.028 | glycan array binding signal (z-score) [7]: 0.034 | glycan array binding signal (z-score) [8]: 0.1 | glycan array binding signal (z-score) [9]: -0.534 | glycan array binding signal (z-score) [10]: -0.466 | glycan array binding signal (z-score) [11]: 0.396 | glycan array binding signal (z-score) [12]: 0.355 | glycan array binding signal (z-score) [13]: 0.27 | glycan array binding signal (z-score) [14]: 0.083 | glycan array binding signal (z-score) [15]: -0.248 | glycan array binding signal (z-score) [16]: -0.182 | glycan array binding signal (z-score) [17]: -0.546 | glycan array binding signal (z-score) [18]: -0.513 | glycan array binding signal (z-score) [19]: -0.529 | glycan array binding signal (z-score) [20]: -0.2 | glycan array binding signal (z-score) [21]: -0.506 | glycan array binding signal (z-score) [22]: -0.109 | glycan array binding signal (z-score) [23]: -0.539 | glycan array binding signal (z-score) (Neu5Ac(a2-3)Gal(b1-4)Glc): 0.211 | glycan array binding signal (z-score) [24]: -0.517 | glycan array binding signal (z-score) [25]: -0.457 | glycan array binding signal (z-score) [26]: -0.399 | glycan array binding signal (z-score) [27]: -0.399 | glycan array binding signal (z-score) [28]: -0.333 | glycan array binding signal (z-score) [29]: -0.45 | glycan array binding signal (z-score) [30]: -0.222 | glycan array binding signal (z-score) [31]: -0.201 | glycan array binding signal (z-score) [32]: -0.301 | glycan array binding signal (z-score) [33]: -0.525 | glycan array binding signal (z-score) [34]: -0.043 | glycan array binding signal (z-score) [35]: -0.323
